Source: patent US20210340516A1, “COMPOSITIONS CONTAINING ARGINASE 1 FOR THE TREATMENT OF NEUROVASCULAR AND RETINAL VASCULAR DISORDERS” (Augusta University Research Institute, Inc., priority 2020, published 2021)

What was measured:
[1] = test system: R28 retinal neuronal-like cells; assay: R28 cells subjected to OGD, LDH release assay; type: cell-based; settings: 6 or 24 hours of OGD, PEG-A1 1 μg/mL throughout
Method: (§1) Oxygen-glucose deprivation/reoxygenation (OGD/R) protocol: Oxygen-glucose deprivation/reoxygenation (OGD/R) in vitro was used to mimic in vivo ischemia/reperfusion injury. To achieve OGD, neuron culture was incubated in a hypoxia chamber (ProOx 110, Biospherix, <1% O2, 94% N2, and 5% CO2 at 37° C.) and glucose free DMEM medium and in some experiments this was followed by “reoxygenation” in complete medium under normoxic conditions (95% air, 5% CO2 at 37° C.).
(§2) R28 retinal neuronal-like cells: Cells were purchased from Kerafast, Inc. Boston, Mass. 02210. Cells were cultured and differentiated as described Kong, et al., Exp Eye Res., 151:82-95 (2016) and McLaughlin, et al., Frontiers in Aging Neuroscience, 10:267 (2018). Cell passages 67 to 70 were used for experiments.

[2] = test system: R28 retinal neuronal-like cells; assay: R28 cells subjected to OGD/reoxygenation, MTT assay; type: cell-based; settings: 3 hours OGD then 3 hours reoxygenation, PEG-A1 0.1 and 1 μg/mL
Method: as §1, §2

B1: PEG-A1: recombinant human arginase (rhArg) covalently attached to methoxy polyethylene glycol (mPEG-SPA; MW 5,000) via succinamide propionic acid (SPA) linker (protein, UniProt P05089 1-322, looked up)
Arginase-1: MSAKSRTIGIIGAPFSKGQPRGGVEEGPTVLRKAGLLEKLKEQECDVKDYGDLPFADIPNDSPFQIVKNPRSVGKASEQLAGKVAEVKKNGRISLVLGGDHSLAIGSISGHARVHPDLGVIWVDAHTDINTPLTTTSGNLHGQPVSFLLKELKGKIPDVPGFSWVTPCISAKDIVYIGLRDVDPGEHYILKTLGIKYFSMTEVDRLGIGKVMEETLSYLLGRKKRPIHLSFDVDGLDPSFTPATGTPVVGGLTYREGLYITEEIYKTGLLSGLDIMEVNPSLGKTPEEVTRTVNTAVAITLACFGLAREGNHKPIDYLNPPK
modifications: mPEG-SPA 5 kDa conjugate
notes: recombinant human arginase (rhArg) covalently attached to methoxy polyethylene glycol (mPEG-SPA; MW 5,000) via succinamide propionic acid (SPA) linker
[1]
  cell death (LDH release): did not show any differences in cell death
[2]
  cell viability (MTT): no difference
